Results taken from PubChem BioAssay AID360 (National Center for Advancing Translational Sciences (NCATS), 2006).
Hit rate of the full screen: of about 48,000 compounds, about 550 (1.1%) were called active. Not shown: some 4% with an inconclusive outcome. Cut-off read from the data, not from the text of the source: active = potency below about 15 µM; inconclusive = mostly about 16 µM to 33 µM; inactive = weaker than that. The list shows a part of the results.

Each compound was assayed against Lysosomal acid glucosylceramidase (Homo sapiens) (UniProt P04062) (assay: Glucocerebrosidase). Conditions: purified enzyme, resorufin glucoside fluorescence (screen aimed at inhibitors), 20 min.
Chain of UniProt P04062 (P04062 whole entry, looked up): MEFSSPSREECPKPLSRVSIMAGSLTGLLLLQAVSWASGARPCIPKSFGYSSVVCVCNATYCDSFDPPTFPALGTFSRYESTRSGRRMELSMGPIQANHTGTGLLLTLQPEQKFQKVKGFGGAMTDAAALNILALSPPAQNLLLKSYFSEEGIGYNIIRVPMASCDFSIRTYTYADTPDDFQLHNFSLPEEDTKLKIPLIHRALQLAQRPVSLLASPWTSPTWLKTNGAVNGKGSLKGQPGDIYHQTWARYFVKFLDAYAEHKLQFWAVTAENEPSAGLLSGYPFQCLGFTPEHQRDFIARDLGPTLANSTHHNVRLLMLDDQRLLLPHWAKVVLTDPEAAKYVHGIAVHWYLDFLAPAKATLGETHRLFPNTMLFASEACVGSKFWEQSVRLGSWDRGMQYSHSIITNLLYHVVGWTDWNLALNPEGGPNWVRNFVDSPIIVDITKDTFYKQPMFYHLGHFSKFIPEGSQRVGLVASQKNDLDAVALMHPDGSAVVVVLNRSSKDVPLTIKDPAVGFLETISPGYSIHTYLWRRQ
Outline: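 Wild-type enzyme at 0.2 nM final in 50mM citric acid/KH2PO4, 10mM sodium taurocholate, 0.01% tween-20, pH 5.9, with resorufin beta-D-glucopyranoside at 30 uM final. Compounds titrated, 20 min at RT, red fluorescence read; AC50 from titration.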
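Note: the screen sought inhibitors.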
Potency is the fitted concentration of half-maximal effect.

| Compound | Potency |
| --- | --- |
| O=C(NCN1CCN(c2ccccn2)CC1)c1cnccn1 | inactive: > 76.9 µM |
| COc1ccc2c(c1)c(=O)oc1cc(OCC(=O)N3CCC(C)CC3)ccc12 | inactive: > 76.9 µM |
| O=C(CN1CCN(c2ccccc2)CC1)Nc1c(C(=O)C2CC2)oc2ccccc12 | inactive: > 76.9 µM |
| O=C(NCc1cccc(F)c1)C1CCN(S(=O)(=O)Cc2ccccc2)CC1 | inactive: > 76.9 µM |
| O=C(C1=C(O)C(=O)N(CCN2CCOCC2)C1c1ccccn1)c1cccs1 (stereo not given) | inactive: > 76.9 µM |
| O=C(Nc1cccnc1N1CCOCC1)c1ccco1 | inactive: > 76.9 µM |
| CCOC(=O)c1cccc(NC(=O)CSc2nc3ccccc3c(=O)n2CCOC)c1 | inactive: > 76.9 µM |
| CC(=O)Nc1ccc(N=Cc2nc(-c3ccc(C)cc3)oc2O)cc1 | inactive: > 76.9 µM |
| Cc1cc(C(=O)Nc2cnn(Cc3ccc(Cl)cc3Cl)c2)no1 | inactive |
| CCCn1c(SCC(=O)N2CCc3ccccc32)nnc1-c1ccncc1 | inactive: > 76.9 µM |
| COc1ccc(C(=O)N2CC(=O)N(CCc3ccccc3)C(=O)C2)cc1OC | inactive: > 76.9 µM |
| Cc1ccc(C)n1-c1cccc(C(=O)O)c1 | inactive: > 76.9 µM |
| c1ccc(-c2nc3nonc3nc2-c2ccccc2)cc1 | inactive |
| Cc1ccc(-c2nn(-c3ccccc3)c3[nH]c(=O)c(CNCCN(C)C)cc23)cc1 | inactive: > 76.9 µM |
| Cn1nc(C(=O)NCc2ccc(F)cc2)c2ccccc2c1=O | inactive: > 76.9 µM |
| O=C(Nc1ccc2oc(-c3ccccc3)nc2c1)c1cccnc1 | inactive: > 76.9 µM |
| COc1cc(NC(=O)CN2C(=O)NC(C)(CC(C)C)C2=O)cc(OC)c1 (stereo not given) | inactive: > 76.9 µM |
| COc1cc2c(cc1OC)/C(=C/C(=O)N1CCOCC1)NC(C)(C)C2 | inactive: > 76.9 µM |
| Cc1nc2nc(SCC(=O)N3CCOCC3)nn2c(C)c1Cc1ccccc1 | inactive: > 76.9 µM |
| CN1C(=O)NC(c2ccc(O)cc2)C(C(=O)c2cccs2)C1(O)C(F)(F)F (stereo not given) | active: 15 µM |
| Cn1cccc1-c1nc2ccc(NC(=O)c3cccs3)cc2[nH]1 | inactive |
| CCCC(=O)C1=C(c2ccccc2)C(C#N)(C#N)C(C#N)=C1N | inactive |
| CCc1cc(=O)oc2cc(OCC(=O)N3CCc4ccccc43)ccc12 | inactive: > 76.9 µM |
| O=C1c2ccccc2C(O)(Cc2ccccc2)N1Cc1ccco1 (stereo not given) | inactive: > 76.9 µM |
| Cc1cc(NS(=O)(=O)c2ccc(NC(=O)Nc3cccc(Cl)c3)cc2)no1 | inactive: > 76.9 µM |
